# Data taken from ChEMBL document CHEMBL4888484, “Replenishing the malaria drug discovery pipeline: Screening and hit evaluation of the MMV Hit Generation Library 1 (HGL1) against asexual blood stage Plasmodium falciparum ,using a nano luciferase reporter read-out” (2022).
# The campaign covered roughly 150,000 compounds. About 540 (0.36%) showed an effect of 50% or more. The list shows a part of the results.
# Test system: Plasmodium falciparum
# Test: Primary screen in NF54 nanoGlo assay, in single point, at 2uM, 72h; a lower Z score goes with more inhibition
# Format: functional, Erythrocyte
# Settings: timepoint 72 hour
SMILES,% Inhibition [%],Z score
Cc1nc(C)c(C(=O)N2CCNC(=O)[C@@H](CC(C)C)NC(=O)c3cc(F)ccc3OCCn3cc(nn3)CC2)s1,1,-0.14
Oc1ccc2c(c1)CN(CCc1cn[nH]c1)C2,-4,0.4
COc1ccc(NC(=O)[C@H](Nc2ccc3oc(C)nc3c2)c2ccccc2)cc1Cl,19,-2.17
Cc1cccc(NC(=O)[C@@H](C#N)C(=O)C2CCC2)c1,31,-0.83
Cc1nc2cc(N3CCC(C(=O)NCc4cccs4)CC3)cnc2nc1C,-9,1.4
CCn1cc(C)c(C(=O)O)c1CC(=O)Nc1ccc(C)c(C)c1,-17,2.28
C[C@H](NC(=O)NCc1nccn1C)c1noc(-c2ccccc2)n1,-4,0.49
Cc1cccc(C)c1Oc1ccccc1NC(=O)CCc1nnc[nH]1,36,-4.88
COc1ccc(-c2nc([C@H]3CC(=O)N(c4ccc(Cl)cc4)C3)no2)cc1F,-1,0.14
Cc1c(F)cccc1NC(=O)N1CC[C@H](N(CCCN2CCCC2)S(C)(=O)=O)C1,0,-0.02
COCCN1C[C@@H](Cc2ccc3oc(-c4cccnc4)nc3c2)CC1=O,-12,2.07
CCCNS(=O)(=O)c1ccc(OC)c(C(C)(C)C)c1,-4,0.54
O=C(N[C@@H]1CN(Cc2cccc(F)c2F)C[C@H]1CO)c1ccccc1,2,-0.29
CCN(C(=O)CCN)[C@@H](C)c1cccc(C(F)(F)F)c1,-8,1.49
O=C(c1ncccn1)N1CC[C@H](Oc2cc(C(F)(F)F)ccn2)C1,-8,1.48
O=C(OCC(=O)N1CCNC1=O)c1cc(Cl)c[nH]1,10,-1.8
Cc1cc(C(=O)NCCN(C)CCc2ccccc2)cc(C)n1,-8,1.11
CN(C[C@H]1CCOC1)c1ncnc2[nH]ccc12,-15,1.49
CNC(=O)[C@@H](C)CN(C)Cc1ccc(Cl)cc1C,-7,0.86
Cc1ccccc1Cn1c(=O)c(C(=O)NCc2ccc(F)cc2)nn(-c2ccccc2F)c1=O,-6,0.97
O=C(CC1CCN(C(=O)c2nnc(C(=O)Nc3ccc(Cl)cc3)s2)CC1)NCCN1CCCCC1,-7,1.08
O=C(C1CCc2ccccc2CC1)N1CCC(CO)CC1,-12,1.87

SMILES,% Inhibition [%],Z score
Cc1nn(-c2ccccc2)c2sc(-c3noc(CNS(=O)(=O)c4ccccc4)n3)cc12,9,-1.03
O=C(NCCOc1cccc(F)c1)[C@@H]1CCCO1,5,-0.77
CC(=O)NC[C@H]1CN(CCCc2cnccc2C)CCO1,34,-3.71
Cn1nc(N)c2cc(C(F)(F)F)ccc21,37,-1.02
O=C(NCc1ccccc1Cl)c1ccc(N2CCCCS2(=O)=O)cc1,-19,2.47
CC(C)CCn1cc(C(=O)N2CCC[C@@H]2Cc2ccc(F)cc2)nn1,-10,1.6
O=C(c1cc(-c2cccc(Cl)c2)[nH]n1)N1CCN(C(c2ccccc2)c2ccccc2)CC1,-7,1.05
COc1ccc(CN2C(=O)[C@H](CC(=O)Nc3ccc4[nH]ccc4c3)N=C2O)cc1OC,8,-1.02
Cc1cccc(CN(C)C(=O)NCC2(N)CCC2)c1C,-3,0.4
O=C(Cn1ncnn1)N1CCC(c2ccc(Cl)cc2Cl)CC1,-3,0.35
COc1cc([C@H](C)NC(=O)Cc2ccncc2)cc(OC)c1OC,-16,2.15
O=c1c2cccn2cnn1CCC1OCCO1,6,-0.73
CC(C)(C)C1=CCN(CCNC(=O)c2c[nH]nn2)CC1,-4,0.8
CC(C)(O)CC(=O)NCCc1cnn(Cc2ccccc2)c1,-5,0.85
CN1CCc2cc(NC(=O)c3ccnn3C3CCC3)ccc2C1=O,0,-0.09
COCCCN1C(=O)c2ccccc2NC12CCCC2,2,-0.27
C#C[C@H](C)NC(=O)c1c(Br)cccc1Br,-4,0.84
CC(C)(C)c1coc(CNC(=O)N[C@H]2C[C@@H]2c2ccc(F)cc2F)n1,1,-0.24
O=C(c1csc(-c2ccnc(N3CCCC3)c2)n1)N1CCN(c2ccccc2)CC1,-11,1.5
CC(=Cc1ccccc1)CN1CC[C@H](NS(C)(=O)=O)C1,-10,0.98
C=CCc1c(C)nc(N)nc1N1CCC2(CC[C@H](CNC(C)=O)O2)CC1,-9,1.4
CNC(=O)CN(Cc1nc(C)cs1)C[C@H]1CCCO1,1,-0.17

SMILES,% Inhibition [%],Z score
COCC1(CCNC(=O)c2c(C(C)C)nn(C)c2Cl)CC1,16,-2.02
C[C@@](CO)(Cc1ccc(Cl)cc1)NC(=O)c1ccc(C(F)(F)F)s1,10,-1.22
Cc1noc(C)c1CS(=O)(=O)CC(=O)c1cc(C)n(C(C)C)c1C,28,-3.79
OCC[C@H]1CCc2ccccc2N1Cc1ccn(CC(F)(F)F)n1,-6,0.71
Cc1ccc(-c2nc3cccnc3s2)cc1NC(=O)CC1CCCCC1,-10,1.85
C[C@@H](O)C(=O)N1CCC(CNC(=O)C2CCCCC2)CC1,0,0.09
O=C(c1ccc(N2CCCN(Cc3ccccc3)C2=O)cc1)N1CCC(O)CC1,-2,0.32
C=C1C2(C(=O)N3CCCC(C#N)C3)CCC(C2)C1(C)C (stereo not given),-2,0.21
O=C(CNc1ccccc1N1CCCCC1)Nc1ccc2c(c1)OCO2,-5,0.94
CS(=O)(=O)C1CN(c2ccc(C#N)cn2)C1,-6,0.75
Cn1c(=O)c2c(ncn2CC(=O)OCC(=O)Nc2ccc(Cl)cc2F)n(C)c1=O,-6,0.92
CCN(CC)C[C@H](C)OC(=O)c1ccc(Cl)cc1Cl,-4,0.69
O=C(c1cc(-c2ccccc2)on1)N1CCC(=C2CC2)CC1,-20,2.33
O=C(NC[C@@H]1CCCN2CCCC[C@H]12)c1cc2cccc(Cl)c2s1,-11,1.43
COc1ccc(-c2cnsn2)c(OC)c1OC,3,-0.61
Cc1cc(Cl)c(C(C)NCC2CCN(S(C)(=O)=O)C2)cc1C (stereo not given),-6,1.12
CC(C)c1nc(C2CCCN(C(=O)C(C)n3cncn3)C2)no1 (stereo not given),-4,0.61
C[C@H](NC(=O)c1ccc2c(c1)OCCO2)C1CC1,2,-0.23
Cc1ccc(C(F)(F)F)cc1CN1CC[C@](C)(O)[C@H](O)C1,-8,1.62
COc1ccc(C(=O)N2CCCOCCNC(=O)CC2)cc1F,-14,1.85
COc1ccc(F)cc1S(=O)(=O)N1CCN=C1Cc1cccc2ccccc12,1,-0.17
Cc1nnc(N[C@H]2CCO[C@@H]2c2cnn(C)c2)o1,-2,0.28

SMILES,% Inhibition [%],Z score
CC[C@H](C)n1nnc2cc(S(=O)(=O)N3CCC(C(=O)Nc4ccc(C)cc4Cl)CC3)ccc21,-20,2.7
O=C(NC1Cc2ccccc2C1)c1cc2ncc(CCO)cn2n1,-6,1.08
CC(=O)c1c(F)cccc1N[C@@H](C)CCO,3,-0.29
COc1ccc(CN2CCc3nnc(-c4ccccc4)n3CC2)cc1OC,-7,0.85
O=C(N[C@H]1CCOc2ccccc21)c1cccs1,-11,1.03
Cc1nc(NC(=O)Cc2csc(NC(=O)c3ncccn3)n2)sc1C,-17,2.03
c1ccc(-c2csc(CN3CCc4nncn4CC3)n2)cc1,0,-0.01
CCNC(=O)N1CC(C(=O)NCc2ccco2)CC(c2ccc(OC)c(OC)c2)C1 (stereo not given),-11,1.05
Cc1c(F)cccc1N1CC[C@@H](C(=O)Nc2ccc(C(F)(F)F)cc2)C1=O,4,-0.46
Cc1cnc(CN(C)CCOc2ccc(Cl)cc2C)cn1,3,-0.4
Cc1nc(C)c(C(=O)Nc2ccc3c(c2)CCCN3)o1,-2,0.21
CC(C)c1nccc(C(=O)N2CCOC(C)(C)C2)n1,-5,0.72
Cn1cnc2c1CCN(Cc1cn3cc(Cl)ccc3n1)C2,-5,0.62
c1ccc(-c2nc(-c3cccc(-c4nc(-c5ccccc5)c(-c5ccccc5)[nH]4)c3)[nH]c2-c2ccccc2)cc1,-2,0.21
CCCCc1ccc(-c2ccc(-n3cncc3C(=O)NC3CCN(Cc4ccccc4)CC3)cc2)cc1,-5,0.74
CC#CCn1c(=O)n(C[C@H]2CCCN2CC)c2ccc(C(=O)O)cc21,6,-1.29
O=C(O)c1cc(S(=O)(=O)N2CC3(CC3)c3ccccc32)cs1,-4,0.42
O=C1CC(CC2CC2)=NN1c1cc(F)ccc1F,-11,1.33
CCS(=O)(=O)N1CC2(C[C@H](N(C)Cc3ccccc3)CO2)C1,-2,0.4
